# Assay results as given in patent publication US4132738A, “Preparation of 15-deoxy-16-hydroxyprostaglandins” (Miles Laboratories, Inc., priority 1978, dated 1979).
# At least one read-out could not be matched to a standard name with certainty.
# Legend:
# [1] = test system: gastric secretion in the rat; assay: Effects on gastric secretion in the rat; format: in vivo; settings: pylorus ligated, s.c. 1.5 mg/kg twice, total 3.0 mg/kg, 4 hours
# Protocol: A procedure based on that described by Lipman, W. (J. Pharm. Pharmacol., 21: 335 [1968]) was used to assess the influence of test compounds on gastric secretion. Rats of one sex weighing 150 to 200 g were randomly divided into groups of six animals each and fasted for 48 hours previous to the experiments, water being available ad libitum. The animals were anesthetized with ether, the abdomen opened through a midline incision, and the pylorus ligated. Test compounds were diluted from stock solution so as to administer a dose of 1.5 mg/kg in a volume equivalent to 1 ml/kg. Subcutaneous injections were applied immediately after surgery and again 2 hours later, so that a total dose of 3.0 mg/kg was administered. Dilutions were made with phosphate buffer (pH 7.38) as recommended by Lee et al. (Prostaglandins, 3: 29 [1973]) in order to insure adequate stability of drugs at the subcutaneous depot. Each compound was tested in one group of rats; an additional control group received only the vehicle.
# Four hours after pyllric ligation the animals were killed with ether, the cardias ligated, and the stomachs removed. The volume of gastric secretion was measured and the contents centrifuged at 5000 rpm for 10 minutes. Total acid in the supernatant was titrated against a 0.1 N sodium hydroxide solution and the amount expressed in mEq.
# Volume and total acid values of the treated group were compared with those of the controls […]. Antisecretory activity was scored according to the following scale: […]
# chick rectum = assay: Cascade assay, chick rectum in vitro; format: cell-based; settings: 0.0001 to 100,000 ng, max = PGE1 response
# rat stomach = assay: Cascade assay, rat stomach fundus in vitro; format: cell-based; settings: 0.0001 to 100,000 ng, max = PGE1 response
# Protocol: (§1) The smooth muscle stimulant effects of the test compounds were determined simultaneously in four different tissues that are known to be reactive to naturally occurring prostaglandins. Segments of rat stomach fundus, rat colon, chick rectum and rabbit aortic strip were obtained as described by: Vane, J. R., Brit. J. Pharmacol., 12: 344 (1957); Regoli, D. and Vane, J. R., Brit. J. Pharmacol., 23: 351 (1964); Mann, M. and West, G. B., Brit. J. Pharmacol., 5: 173 (1950); and Furchgott, R. F. and Bhadrakom, R., J. Pharmacol. Exper. Ther., 108: 129 (1953). One end of each preparation was tied to the bottom of a 10 ml tissue chamber and the other to a force displacement transducer (Grass FT-03) for continuous tension recording. The stomach, colon, and rectum segments were stretched to an initial tension of 1 g, while the aortic strip was subjected to 4 g. All preparations were left undisturbed for 1 hour prior to ptesting. The chambers were equipped with an external jacket through which water, maintained at 40° C., was circulated. Preparations were arranged one beneath the other in descending order (aorta, stomach, colon and rectum). Provision was made for bathing the four tissues successively so that they were superfused with the same fluid (Gaddum, J. H., Brit. J. Pharmacol., 6: 321 [1953]). The bathing fluid consisted of: Krebs bicarbonate solution aerated with a mixture of 95% 02 and 5% CO2 and warmed at 37° C.; atropine sulphate (0.1 mcg/ml, phenoxybenzamine hydrochloride (0.1 mcg/ml), propranolol hydrochloride (3.0 mcb/ml), methysergide maleate (0.2 mcb/ml) and brompheniramine maleate (0.1 mcg/ml) were added to eliminate the possibility of smooth muscle responses being due to stimulation of cholinergic, adrenerigic, serotonin of histamine receptors. The fluid was circulated by means of a roller pump and was allowed to drip over the preparations at a rate of 10 ml/minute.
# (§2) Test compounds were diluted from stock solutions so as to administer quantities ranging from 0.0001 to 100,000 ng in a volume of 0.5 ml. The compounds were applied by dripping on the uppermost tissue, at intervals of 10 to 20 minutes. Maximal increases in tension after each dose were measured and the results were used to plot dose-response curves. ED50 data (doses necessary to produce a response 50% of maximum) were then calculated graphically for each tissue. Maximum responses utilized were those elicited by PGE1 in gastric and rectal tissue, by PGF2α in colonic tissue, and by PGA2 in aortic tissue.
# (§3) Activity in each tissue was scored according to the following scale: […]
# rabbit aorta = assay: Cascade assay, rabbit aorta in vitro; format: cell-based; settings: rabbit aortic strip in vitro; 0.0001 to 100,000 ng; max = PGA2 response
# [2] = test system: blood pressure and heart rate in the anesthetized cat; assay: Effects on blood pressure and heart rate in the anesthetized cat; format: in vivo; settings: i.v. 0.01 to 10.0 mcg/kg, scored on hypotension only
# Protocol: The acute effects of test compounds on blood pressure and heart rate were determined in cats of either sex anesthetized with a mixture of pentobarbital sodium (35 mg/kg, i.v.) and barbital sodium (100 mg/kg, i.v.). Cannulas were placed in the trachea to allow adequate spontaneous ventilation, in a femoral artery for blood pressure recording with a strain gage transducer, and in a saphenous vein for drug administration.
# Heart rate was recorded by means of a cardiotachometer driven by the R wave of the electrocardiogram. After a period of 10 minutes of stable recordings of blood pressure and heart rate, the test compound was administered intravenously at doses increasing from 0.01 to 10.0 mcg/kg, spaced one log and injected at 10 minute intervals. All doses were injected in a volume of 0.1 ml/kg. Modifications of blood pressure and heart rate induced by the test compound were expressed both in absolute units (mmHg and beats/minute) and as percent of values recorded immediately before administration of each dose. Biphasic responses were tabulated in the order in which they occurred. The direction of the observed changes is also noted (+ for increases, and - for decreases).
# Activity of compounds in this test was judged only on the basis of the degree of hypotension observed. Thus, the ED50 mmHg (dose decreasing blood pressure by 50 mmHg) was calculated graphically, and the compound scored according to the following scale: […]
# [3] = test system: femoral blood flow in the anesthetized dog; assay: Effects on femoral blood flow in the anesthetized dog; format: in vivo; settings: intraarterial 0.001 to 10 mcg
# Protocol: The peripheral vasodilator or constrictor effects of test compounds were determined in mongrel dogs of either sex, weighing between 10 and 20 kg, anesthetized intravenously with 35 mg/kg of pentobarbital sodium. An external iliac artery was dissected immediately above the femoral arch for a length of approximately 5 cm, and a previously calibarated, non-cannulating electromagnetic-flowmeter sensor with a lumen between 2.5 and 3.5 mm was placed snugly around the vessel. Cannulas were placed in a branch of the artery arising distally to the location of the flowmeter sensor for intraarterial drug administrations, in the contralateral femoral artery for systemic blood pressure recording, and in the trachea for artificial respiration with room air. Femoral blood flow and systemic blood pressure were continuously recorded with an electromagnetic flowmeter and pressure transducer, respectively.
# After an adequate control period, test compounds were injected intraarterially at one log-spaced doses ranging from 0.001 to 10 mcg, in a volume of 0.5 ml and at 5 to 10 minute intervals. Maximum changes in blood flow, as well as any variations in blood pressure, were tablulated for each dose in absolute values (ml/min. and mmHg), and the former were also expressed in percent. Those calculations were made taking as control values those existing immediately before administration of each dose. The direction of the observed change (+ for increase and -- for decrease) was also noted. The dose changing blood flow by 100 ml/min (ED100 ml/min) was calculated graphically and was used for scoring activity as follows: […]
# rat uterus = assay: Effects on the rat uterus in vitro; format: cell-based; settings: 0.001 to 10 mcg/ml, ED50 relative to carbachol response
# rat colon = assay: Cascade assay, rat colon in vitro; format: cell-based; settings: 0.0001 to 100,000 ng, max = PGF2α response
# Protocol: as §1, §2, §3
Compound,Gastric Secretion: activity value (% decrease in acidity) [1],"Cascade, Rectum: activity value (ED50) (chick rectum)","Cascade, Stomache: activity value (ED50) (rat stomach)","Cascade, Aorta: activity value (ED50) (rabbit aorta)",Feline Blood Pressure Heart Rate: activity value (ED50 mmHg) [2],Femoral Blood Flow: activity value (ED100 ml/min) [3],Rat Uterus: activity value (ED50) (rat uterus),"Cascade, Colon: activity value (ED50) (rat colon)"
"CCCC(C)C(O)C/C=C/[C@H]1[C@H](O)CC(=O)[C@@H]1CCCCCCCO (stereo partly drawn) [TR 4749, 1, 11α, 16RS-trihydroxy-17RS-methylprost-13E-en-9-one]",3 (% decrease in acidity 51-75),"0 (ED50, ng >10000)","0 (ED50, ng >10000)","0 (ED50, ng >10000)","0 (ED50 mmHg, mcg/kg >10.0)",0 (ED100 ml/min. mcg >10.0),0 (ED50 (mcg/ml) >10),"0 (ED50, ng >10000)"
"COC(=O)CCCCCC[C@H]1C(=O)C[C@@H](O)[C@@H]1/C=C/CC1(O)CC2CCCCC21 (stereo partly drawn) [TR 4808, Methyl 11α, 16RS-dihydroxy-17, 20-ethano-16, 18-methano-9-oxoprost-13E-en-1-oate]","1 (% decrease in acidity 26-50, not significant)","0 (ED50, ng >10000)","0 (ED50, ng >10000)","0 (ED50, ng >10000)","0 (ED50 mmHg, mcg/kg >10.0)",0 (ED100 ml/min. mcg >10.0),0 (ED50 (mcg/ml) >10),"0 (ED50, ng >10000)"
"CCCCC(C)(O)C/C=C/[C@H]1[C@H](O)CC(=O)[C@@H]1CCCCCCCO (stereo partly drawn) [TR 4698, 16-methyl-1,11α,16RS-trihydroxyprost-13E-en-9-one]",4 (% decrease in acidity 76-100),"1 (ED50, ng 1001 - 10000)","0 (ED50, ng >10000)","0 (ED50, ng >10000)","0 (ED50 mmHg, mcg/kg >10.0)",0 (ED100 ml/min. mcg >10.0),,"1 (ED50, ng 1001 - 10000)"
"CCCCC(C)(O)C/C=C/[C@H]1[C@H](O)CC(=O)[C@@H]1CCCCCCC(=O)OC (stereo partly drawn) [TR 4704, Methyl 11α, 16RS-dihydroxy-16-methyl-9-oxoprost-13E-oate, reference compound]",4 (% decrease in acidity 76-100),"2 (ED50, ng 101 - 1000)","2 (ED50, ng 101 - 1000)","0 (ED50, ng >10000)","2 (ED50 mmHg, mcg/kg 0.11 - 1.0)",3 (ED100 ml/min. mcg 0.0 - 0.1),,"1 (ED50, ng 1001 - 10000)"
"CCCCC(O)C/C=C/[C@H]1[C@H](O)CC(=O)[C@@H]1CCCCCCCO (stereo partly drawn) [TR 4706, 1,11α,16RS-trihydroxyprost-13E-en-9-one]",4 (% decrease in acidity 76-100),"1 (ED50, ng 1001 - 10000)","1 (ED50, ng 1001 - 10000)","0 (ED50, ng >10000)","0 (ED50 mmHg, mcg/kg >10.0)",0 (ED100 ml/min. mcg >10.0),,"1 (ED50, ng 1001 - 10000)"
"CCCCC(O)C/C=C/[C@H]1[C@H](O)CC(=O)[C@@H]1CCCCCCC(=O)OC (stereo partly drawn) [TR 4705, Methyl 11α, 16RS-dihydroxy-9-oxoprost-13E-en-1-oate, reference compound]",4 (% decrease in acidity 76-100),"2 (ED50, ng 101 - 1000)","2 (ED50, ng 101 - 1000)","0 (ED50, ng >10000)","0 (ED50 mmHg, mcg/kg >10.0)",1 (ED100 ml/min. mcg 1.01 - 10.0),,"1 (ED50, ng 1001 - 10000)"
